The list shows a part of the results.
What was measured:
HSkMC = human skeletal muscle cells; assay: cytotoxicity call (relative viability < 0.9); details: 10 µM
HepG2 = assay: cytotoxicity call (relative viability < 0.9); details: 10 µM
S. aureus RN4220 = assay: growth inhibition call (relative growth <= 0.2); details: 50 µM

Structure (SMILES) | cytotoxicity call (HSkMC) | cytotoxicity call (HepG2) | growth inhibition call (S. aureus RN4220)
CC(C)[C@H](NC(=O)[C@H](CC(=O)O)NC(=O)[C@H](CCCCN)NC(=O)[C@@H](N)CCCNC(=N)N)C(=O)N[C@@H](Cc1ccc(O)cc1)C(=O)O | inactive | inactive | inactive
C[C@H]1CCCCO[C@H](CN(C)S(=O)(=O)c2ccc(Cl)cc2)[C@@H](C)CN([C@@H](C)CO)C(=O)c2cc(NC(=O)C3CCCCC3)ccc2O1 | inactive | inactive | inactive
COc1ccc(S(=O)(=O)Nc2ccc3c(c2)C(=O)N([C@H](C)CO)C[C@@H](C)[C@H](CN(C)C(=O)NC2CCCCC2)OCCCC[C@@H](C)O3)cc1 | inactive | inactive | inactive
Cc1ccc(S(=O)(=O)N(C)C[C@H]2Oc3c(NC(=O)c4cnccn4)cccc3C(=O)N([C@H](C)CO)C[C@H]2C)cc1 | inactive | inactive | inactive
CCCn1cnnc1[C@@H](C)N | inactive | inactive | inactive
C[C@@H]1CN([C@H](C)CO)C(=O)c2cccc(NC(=O)Nc3ccc4c(c3)OCO4)c2O[C@@H]1CN(C)Cc1ccc(Cl)c(Cl)c1 | inactive | inactive | inactive
Cc1ccc(S(=O)(=O)N2CCNCC2)cc1 | inactive | inactive | inactive
O=C(Cc1ccncc1)Nc1ccc2c(c1)[C@@H]1C[C@H](CC(=O)N3CCc4ccccc4C3)O[C@H](CO)[C@@H]1O2 | inactive | inactive | inactive
CN(C)CCCN1c2ccccc2Sc2ccc(Cl)cc21.Cl | inactive | active | inactive
C[C@@H]1CN([C@H](C)CO)C(=O)c2cc(NC(=O)c3ccncc3)ccc2O[C@H]1CN(C)S(=O)(=O)c1cccs1 | inactive | inactive | inactive
